Laboratory results as given in patent US6448281B1 (Boehringer Ingelheim (Canada) Ltd., priority 2000, dated 2002).

The compounds below were run against hepatitis C virus RNA dependent polymerase (NS5B) (Hepacivirus hominis (Hepatitis C virus), UniProt P26663) (assay: Inhibition of NS5B RNA dependent RNA polymerase activity (SPA, UMP-[5,6 3H] incorporation)). Conditions: not given.
In the case of O=C(N[C@@H](Cc1c[nH]c2ccccc12)C(=O)O)c1ccc2c(c1)nc(-c1ccoc1)n2C1CCCCC1 [Entry 11003], the IC50 is reported as < 1 µM.

Same assay, conditions: IC50 μM, Table 2
With Cc1nc2cc(C(=O)N[C@@H](Cc3c[nH]c4ccc(O)cc34)C(=O)O)ccc2n1C1CCCCC1 [Entry 2040] the IC50 was 10 to 25 µM.
With O=C(N[C@@H](Cc1c[nH]c2ccc(O)cc12)C(=O)O)c1ccc2c(c1)nc(-c1ccc(N3CCCC3)cc1)n2C1CCCCC1 [Entry 2101] the IC50 was 1 to 5 µM.
Cc1cc(-c2nc3cc(C(=O)N[C@@H](Cc4c[nH]c5ccc(O)cc45)C(=O)O)ccc3n2C2CCCCC2)nn1C [Entry 2125] showed an IC50 of 5 to 10 µM.
For COc1ccc(CNC(=O)c2ccc3c(c2)nc(-n2cccc2)n3C2CCCCC2)cc1OC [Entry 2011], the IC50 was 10 to 25 µM.
For O=C(N[C@@H](Cc1c[nH]c2ccc(O)cc12)C(=O)O)c1ccc2c(c1)nc(-c1nccc3ccccc13)n2C1CCCCC1 [Entry 2117], the IC50 was 1 to 5 µM.
O=C(NCc1nc2ccccc2[nH]1)c1ccc2c(c1)nc(-c1ccccn1)n2C1CCCCC1 [Entry 2074] was tested, and the IC50 was 5 to 10 µM.
With O=C(O)C[C@H](NC(=O)c1ccc2c(c1)nc(-c1ccccn1)n2C1CCCCC1)C(=O)O [Entry 2055] the IC50 was 1 to 5 µM.
In the case of COc1ccc(C(NC(=O)c2ccc3c(c2)nc(-c2ccccn2)n3C2CCCCC2)C(C)C)cc1OC (stereo not shown) [Entry 2012], the IC50 is reported as 10 to 25 µM.

Same assay, conditions: IC50 μM, Table 3
With O=C(N[C@@H](Cc1c[nH]c2ccc(O)cc12)C(=O)O)c1ccc2c(c1)nc(-c1ccoc1)n2[C@@H]1CCCC[C@@H]1CO [Entry 3037] the IC50 was 5 to 10 µM.
Compound O=C(N[C@@H](Cc1c[nH]c2ccc(O)cc12)C(=O)O)c1ccc2c(c1)nc(-c1ccoc1)n2[C@@H]1CCC[C@H]1OCc1ccccc1 [Entry 3034] has an IC50 of 5 to 10 µM.

Same assay, conditions: IC50 μM, Table 5
O=C(O)c1ccc2c(n1)nc(-c1ccoc1)n2C1CCCCC1 [Entry 5001, 1-Cyclohexyl-2-furan-3-yl-1H-imidazo[4,5-b]pyridine-5-carboxylic Acid] showed an IC50 of 5 to 10 µM.

Same assay, conditions: IC50 μM, Table 7
Compound O=C(O)c1ccc2c(c1)nc(-c1ccccc1)n2C1CCCCC1 [Entry 7006] has an IC50 of 10 to 25 µM.
In the case of O=C(O)c1ccc2c(c1)nc(-c1ccccn1)n2C1CCCCC1 [Entry 7021, 1-Cyclohexyl-2-pyridin-2-yl-1H-benzoimidazole-5-carboxylic Acid], the IC50 is reported as 1 to 5 µM.
For O=C(O)c1ccc2c(c1)nc(-c1ccsc1)n2C1CCCCC1 [Entry 7023], the IC50 was 10 to 25 µM.

Same assay, conditions: IC50 μM, Table 22
O=C(N[C@@H](Cc1c[nH]c2ccc(O)cc12)C(=O)O)c1ccc2c(c1)nc(-c1ccoc1)n2C1CCC1 [Entry 22020] was tested, and the IC50 was < 1 µM.
CC(C)[C@@H](CO)n1c(-c2ccoc2)nc2cc(C(=O)N[C@@H](Cc3c[nH]c4ccc(O)cc34)C(=O)O)ccc21 [Entry 22014] was tested, and the IC50 was < 1 µM.
For O=C(NC(Cc1c[nH]c2ccc(O)cc12)C(=O)O)c1ccc2c(c1)nc(-c1ccoc1)n2C1CC2CCC1C2 (stereo not shown) [Entry 22009], the IC50 was < 1 µM.
O=C(N[C@@H](Cc1c[nH]c2ccc(O)cc12)C(=O)O)c1ccc2c(c1)nc(-c1ccoc1)n2[C@@H]1CCCC[C@H]1OCc1ccccc1 [Entry 22018] was tested, and the IC50 was < 1 µM.

Same assay, conditions: IC50 μM, first compound table (printed title TABLE 10; Table 1)
O=C(O)CNC(=O)N1CCC(NC(=O)c2ccc3c(c2)nc(-c2ccoc2)n3C2CCCCC2)CC1 [Entry 1195] gave an IC50 of 10 to 25 µM.
Work on COc1ccc(C(NC(=O)c2ccc3c(c2)nc(-c2ccoc2)n3C2CCCCC2)C(C)C)cc1OC (stereo not shown) [Entry 1006] yielded an IC50 of 5 to 10 µM.
In the case of O=C(O)COc1ccc(CN2CCC(NC(=O)c3ccc4c(c3)nc(-c3ccoc3)n4C3CCCCC3)C2)cc1 (stereo not shown) [Entry 1282], the IC50 is reported as 5 to 10 µM.
O=C(O)COc1ccccc1CN1CCC(NC(=O)c2ccc3c(c2)nc(-c2ccoc2)n3C2CCCCC2)CC1 [Entry 1266] showed an IC50 of 5 to 10 µM.
Compound O=C(NC(Cc1ccc2ccccc2c1)C(=O)O)c1ccc2c(c1)nc(-c1ccoc1)n2C1CCCCC1 (stereo not shown) [Entry 1029] has an IC50 of 5 to 10 µM.
In the case of CC(CC(=O)Nc1ccc2[nH]c(C(=O)O)c(-c3ccccc3)c2c1)NC(=O)CC(C)NC(=O)c1ccc2c(c1)nc(-c1ccoc1)n2C1CCCCC1 (stereo not shown) [Entry 1165], the IC50 is reported as 10 to 25 µM.
O=C(O)COc1ccccc1CN1CCC(CNC(=O)c2ccc3c(c2)nc(-c2ccoc2)n3C2CCCCC2)CC1 [Entry 1262] gave an IC50 of 10 to 25 µM.
Work on O=C(N[C@H]1CC[C@H](NCc2ccccc2C(=O)O)CC1)c1ccc2c(c1)nc(-c1ccoc1)n2C1CCCCC1 [Entry 1269] yielded an IC50 of 10 to 25 µM.
For O=C(O)COc1ccccc1CN1CCC(NC(=O)c2ccc3c(c2)nc(-c2ccoc2)n3C2CCCCC2)C1 (stereo not shown) [Entry 1261], the IC50 was 10 to 25 µM.
CC(CC(=O)Nc1cccc(-c2ccc(C(=O)O)o2)c1)NC(=O)c1ccc2c(c1)nc(-c1ccoc1)n2C1CCCCC1 (stereo not shown) [Entry 1166] gave an IC50 of 5 to 10 µM.
With O=C(N[C@H]1CC[C@H](NC(=O)[C@@H]2CCCC[C@@H]2C(=O)O)CC1)c1ccc2c(c1)nc(-c1ccoc1)n2C1CCCCC1 [Entry 1225] the IC50 was 5 to 10 µM.
Work on O=C(O)CCNC(=O)N1CCC(NC(=O)c2ccc3c(c2)nc(-c2ccoc2)n3C2CCCCC2)CC1 [Entry 1218] yielded an IC50 of 10 to 25 µM.
Work on O=C(Nc1ccc(C[C@H](NC(=O)c2ccc3c(c2)nc(-c2ccoc2)n3C2CCCCC2)C(=O)O)cc1)c1ccccc1 [Entry 1080, (S)-2-{[1-(1-Cyclohexyl-2-furan-3-yl-1H-benzoimidazol-5-yl)-methanoyl]amino}-3-{4-[(1-phenylmethanoyl)-amino]-phenyl}-propionic Acid] yielded an IC50 of 1 to 5 µM.
For CC(=O)Nc1nc([C@H](Cc2ccc(O)cc2)NC(=O)c2ccc3c(c2)nc(-c2ccoc2)n3C2CCCCC2)c[nH]1 [Entry 1243, 1-Cyclohexyl-2-furan-3-yl-1H-benzimidazole-5-carboxylic Acid [(S)-1-(2-Acetylamino-1H-imidazol-4-yl)-2-(4-hydroxy-phenyl)-ethyl]-amide], the IC50 was 5 to 10 µM.

Same assay, conditions: IC50, Table 12
For O=C(O)COc1ccc2[nH]cc(C[C@H](NC(=O)c3ccc4c(c3)nc(-c3ccc(OCC(=O)NCCNC(=S)Nc5ccc(-c6c7ccc(=O)cc-7oc7cc(O)ccc67)c(C(=O)O)c5)cc3)n4C3CCCCC3)C(=O)O)c2c1 [Entry 12022, 5-(3-{2-[2-(4-{5-[(S)-1-Carboxy-2-(5-carboxymethoxy-1H-indol-3-yl)-ethylcarbamoyl]-1-cyclohexyl-1H-benzimidazol-2-yl}-phenoxy)-ethanoylamino]-ethyl}-thioureido)-2-(6-hydroxy-3-oxo-3H-xanthen-9-yl)-benzoic Acid], the IC50 was < 1 µM.

Same assay, conditions: IC50, Table 13
In the case of NC(=O)[C@H](Cc1c[nH]c2ccc(NC(=O)C(=O)O)cc12)NC(=O)c1ccc2c(c1)nc(-c1ccoc1)n2C1CCCCC1 [Entry 13008, N-[3-((S)-2-Carbamoyl-2-{[1-(1-cyclohexyl-2-furan-3-yl-1H-benzimidazol-5-yl)-methanoyl]-amino}-ethyl)-1H-indol-5-yl]-oxalamic Acid], the IC50 is reported as < 1 µM.
In the case of CN(C)CCCNC(=O)[C@H](Cc1c[nH]c2ccc(O)cc12)NC(=O)c1ccc2c(c1)nc(-c1ccoc1)n2C1CCCCC1 [Entry 13018, 1-Cyclohexyl-2-furan-3-yl-1H-benzimidazole-5-carboxylic Acid [(S)-1-(3-Dimethylamino-propylcarbamoyl)-2-(5-hydroxy-1H-indol-3-yl)-ethyl]-amide], the IC50 is reported as < 1 µM.
For CC(C)(CO)NC(=O)[C@H](Cc1c[nH]c2ccc(O)cc12)NC(=O)c1ccc2c(c1)nc(-c1ccoc1)n2C1CCCCC1 [Entry 13021, 1-Cyclohexyl-2-furan-3-yl-1H-benzimidazole-5-carboxylic Acid [(S)-1-(2-Hydroxy-1,1-dimethyl-ethylcarbamoyl)-2-(5-hydroxy-1H-indol-3-yl)-ethyl]-amide], the IC50 was < 1 µM.
With Cn1cc(C[C@H](NC(=O)c2ccc3c(c2)nc(-c2ccoc2)n3C2CCCCC2)C(N)=O)c2cc(OCC(=O)O)ccc21 [Entry 13003, [3((S)-2-Carbamoyl-2-{[1-(1-cyclohoxyl-2-furan-3-yl-1H-benzimidazol-5-yl)-methanoyl]-amino}-ethyl)-1-methyl-1H-indol-5-yloxy]-acetic Acid] the IC50 was < 1 µM.
For NC(=O)[C@H](Cc1c[nH]c2ccc(O)cc12)NC(=O)c1ccc2c(c1)nc(-c1ccoc1)n2C1CCCCC1 [Entry 13001, 1-Cyclohexyl-2-furan-3-yl-1H-benzimidazole-5-carboxylic Acid [(S)-1-Carbamoyl-2-(5-hydroxy-1H-indol-3-yl)-ethyl]-amide], the IC50 was < 1 µM.
CN1CCCC1CCNC(=O)[C@H](Cc1c[nH]c2ccc(O)cc12)NC(=O)c1ccc2c(c1)nc(-c1ccoc1)n2C1CCCCC1 (mixture of isomers) [Entry 13020, 1-Cyclohexyl-2-furan-3-yl-1H-benzimidazole-5-carboxylic Acid {(S)-2-(5-Hydroxy-1H-indol-3-yl)-1-[2(RS)-(1-methyl-pyrrolidin-2-yl)-ethylcarbamoyl]-ethyl}-amide] was tested, and the IC50 was < 1 µM.

Same assay, conditions: IC50, Table 14
For Nc1nc([C@H](Cc2c[nH]c3ccc(O)cc23)NC(=O)c2ccc3c(c2)nc(-c2ccoc2)n3C2CCCCC2)cs1 [Entry 14002, 1-Cyclohexyl-2-furan-3-yl-1H-benzimidazole-5-carboxylic Acid [(S)-1-(2-Amino-thiazol-4-yl)-2-(5-hydroxy-1H-indol-3-yl)-ethyl]-amide], the IC50 was < 1 µM.

Same assay, conditions: IC50, Table 16
For O=C(C[C@@H](O)C(=O)O)Nc1ccc(C[C@H](NC(=O)c2ccc3c(c2)nc(-c2ccoc2)n3C2CCCCC2)C(=O)O)cc1 [Entry 16045], the IC50 was < 1 µM.
For NC(=O)c1ccc(C[C@H](NC(=O)c2ccc3c(c2)nc(-c2ccoc2)n3C2CCCCC2)C(=O)O)cc1 [Entry 16035, (S)-3-(4-Carbamoyl-phenyl)-2-{[1-(1-cyclohexyl-2-furan-3-yl-1H-benzoimidazol-5-yl)-methanoyl]-amino}-propionic Acid], the IC50 was < 1 µM.
In the case of O=C(O)/C=C/c1cc(C[C@H](NC(=O)c2ccc3c(c2)nc(-c2ccoc2)n3C2CCCCC2)C(=O)O)ccc1O [Entry 16064, (E)-3-[5-((S)-2-Carboxy-2-{[1-(1-cyclohexyl-2-furan-3-yl-1H-benzimidazol-5-yl)-methanoyl]-amino}-ethyl)-2-hydroxyphenyl]-acrylic Acid], the IC50 is reported as < 1 µM.
In the case of O=C(N[C@@H](Cc1ccc(O)cc1)C(=O)NCc1cccnc1)c1ccc2c(c1)nc(-c1ccoc1)n2C1CCCCC1 [Entry 16047], the IC50 is reported as < 1 µM.
O=C(N[C@@H](Cc1ccc(OP(=O)(O)O)cc1)C(=O)O)c1ccc2c(c1)nc(-c1ccoc1)n2C1CCCCC1 [Entry 16050] was tested, and the IC50 was < 1 µM.
